Common to all, as to test: glycan array binding signal (z-score within array); higher = stronger binding
Common to all, as to conditions: glycan notation: IUPAC condensed, linker removed

The test system of one assay is Fuc(a1-2)Gal6S(b1-4)Glc. The method in brief:
(§1)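 The binding signal is a Z-score computed within each array and averaged over linkers. Arrays of the same protein sequence at different concentrations or buffers were also averaged together. Data originate from 3228 arrays in the Consortium for Functional Glycomics database, kept only where the protein sequence was available.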

The subject of assay [1] is Fuc(a1-2)[Gal(a1-3)]Gal(b1-4)Glc. The method in brief: as §1
The subject of assay [2] is Fuc(a1-2)[Gal(a1-4)]Gal(b1-4)GlcNAc. The method in brief:
as §1

In assay [3] the test system is Fuc(a1-2)[Gal(a1-3)]Gal(b1-3)GlcNAc. The method in brief: as §1
Assay [4] relates to Fuc(a1-2)[Gal(a1-3)]Gal(b1-3)GlcNAc(b1-2)Man(a1-3)[Fuc(a1-2)[Gal(a1-3)]Gal(b1-3)GlcNAc(b1-2)Man(a1-6)]Man(b1-4)GlcNAc(b1-4)GlcNAc. Put shortly:
as §1

Assay [5] concerns Fuc(a1-2)[Gal(a1-3)]Gal(b1-4)GlcNAc. The method in brief: as §1
Assay [6] deals with Fuc(a1-2)[GalNAc(a1-3)]Gal(b1-3)GalNAc(b1-3)Gal(a1-4)Gal(b1-4)Glc. The method in brief:
as §1

Assay [7] relates to Fuc(a1-2)[Gal(a1-3)]Gal(b1-4)[Fuc(a1-3)]GlcNAc. The method in brief:
as §1

Assay [8] concerns Fuc(a1-2)[Gal(a1-3)]Gal(b1-3)GlcNAc(b1-6)GalNAc. Put shortly:
as §1

Assay [9] deals with Fuc(a1-2)[Gal(a1-3)]Gal(b1-4)GlcNAc(b1-3)[Fuc(a1-2)[Gal(a1-3)]Gal(b1-4)GlcNAc(b1-6)]GalNAc. Put shortly:
as §1

For assay [10], the system named is Fuc(a1-2)[GalNAc(a1-3)]Gal(b1-3)GlcNAc(b1-2)Man(a1-3)[Fuc(a1-2)[GalNAc(a1-3)]Gal(b1-3)GlcNAc(b1-2)Man(a1-6)]Man(b1-4)GlcNAc(b1-4)[Fuc(a1-6)]GlcNAc. The method in brief:
as §1

Another assay has as its system Fuc(a1-2)Gal. Put shortly: as §1
The subject of assay [11] is Fuc(a1-2)[Gal(a1-3)]Gal(b1-4)GlcNAc(b1-2)Man(a1-3)[Fuc(a1-2)[Gal(a1-3)]Gal(b1-4)GlcNAc(b1-2)Man(a1-6)]Man(b1-4)GlcNAc(b1-4)[Fuc(a1-6)]GlcNAc. Put shortly: as §1
The test system of assay [12] is Fuc(a1-2)[GalNAc(a1-3)]Gal(b1-3)GlcNAc(b1-2)Man(a1-3)[Fuc(a1-2)[GalNAc(a1-3)]Gal(b1-3)GlcNAc(b1-2)Man(a1-6)]Man(b1-4)GlcNAc(b1-4)GlcNAc. The method in brief: as §1
Assay [13] relates to Fuc(a1-2)[Gal(a1-3)]Gal(b1-4)GlcNAc(b1-2)Man(a1-3)[Fuc(a1-2)[Gal(a1-3)]Gal(b1-4)GlcNAc(b1-2)Man(a1-6)]Man(b1-4)GlcNAc(b1-4)GlcNAc. The method in brief: as §1
Assay [14] has as its system Fuc(a1-2)[Gal(a1-3)]Gal(b1-4)GlcNAc(b1-3)GalNAc. The method in brief:
as §1

The subject of another assay is Fuc(a1-2)GlcNAc. Put shortly:
as §1

Assay [15] relates to Fuc(a1-2)[Gal(a1-3)]Gal(b1-3)GlcNAc(b1-3)GalNAc. Put shortly:
as §1

For assay [16], the system named is Fuc(a1-2)[Gal(a1-3)]Gal(b1-4)GlcNAc(b1-6)GalNAc. Put shortly: as §1
The test system of assay [17] is Fuc(a1-2)[Gal(a1-3)]Gal(b1-4)[Fuc(a1-3)]GlcNAc(b1-3)GalNAc. Put shortly: as §1

This is one part of a sample in which the strongest signals are shown more often than they occur.

Take “Gal 8 long (Homo sapiens) (chain not printed)”: the “glycan array binding signal (z-score)” value in the assay with Fuc(a1-2)Gal6S(b1-4)Glc was -0.313; in assay [1] it was 2.99; in assay [2], 2.77.

Turning to “Siglec-2 (Homo sapiens) (chain not printed)”, the “glycan array binding signal (z-score)” value in assay [3] turned out to be 0.014.

As to “Gal 3 (Homo sapiens) (chain not printed)”, the “glycan array binding signal (z-score)” value was -0.148 in assay [4], 4.77 in [5] and -0.346 in assay [6].

Regarding “M-Ficolin Y271F (Homo sapiens) (chain not printed)”, the “glycan array binding signal (z-score)” value in assay [7] is 0.096.

Regarding “Thrombomodulin Extracellular (Homo sapiens) (chain not printed)”, the “glycan array binding signal (z-score)” value in assay [4] is 0.031; in assay [8], -0.274; in [9] it was 3.27; in assay [10], -0.105.

On to “Galectin-8 C-terminal CRD (Homo sapiens) (chain not printed)”, for which the “glycan array binding signal (z-score)” value in [1] worked out at 3.08.

With VWF (Homo sapiens) (chain not printed), the “glycan array binding signal (z-score)” value in the assay with Fuc(a1-2)Gal is -0.065.

In the case of “Gal 8-short (Homo sapiens) (chain not printed)”, the “glycan array binding signal (z-score)” value in assay [5] was determined as 1.6.

On to “Meso764 (Homo sapiens) (chain not printed)”, for which the “glycan array binding signal (z-score)” value in assay [11] is 0.562.

In the case of “M-Ficolin G221F A256V (Homo sapiens) (chain not printed)”, in assay [12], the “glycan array binding signal (z-score)” value is -0.355.

Regarding MBP (Homo sapiens) (chain not printed), the “glycan array binding signal (z-score)” value in [13] was -0.019; in assay [14], -0.436.

As to “M-Ficolin (Homo sapiens) (chain not printed)”, the “glycan array binding signal (z-score)” value in [2] was -0.256.

Regarding “Collectin K1 (Homo sapiens) (chain not printed)”, the “glycan array binding signal (z-score)” value in assay [2] was -0.232.

Consider “Angiogenin (Homo sapiens) (chain not printed)”, for which the “glycan array binding signal (z-score)” value was -0.271 in the assay with Fuc(a1-2)Gal and -0.56 in assay [3].

On to “H-Ficolin (Homo sapiens) (chain not printed)”, for which the “glycan array binding signal (z-score)” value with Fuc(a1-2)GlcNAc is 2.76; in assay [3], -0.083; in assay [12], -0.437.

For the substance FGF2 (chain not printed), the “glycan array binding signal (z-score)” value amounted to 0.31 in [15], 1.36 in [16] and 0.734 in assay [17].

Turning to “NCAM1 (Homo sapiens) (chain not printed)”, the “glycan array binding signal (z-score)” value was -0.273 in assay [11], 3.59 in [17] and 4.51 in assay [7].

The values are drawn from the supplement of paper PMC8728848.
